Test results reported in paper PMC6212790.
This is one part of the list. At the low end of the ranking, values are background and their order means little.

Molecular target: T1, GST-Rok (full length) (UniProt O34857)
T1 sequence: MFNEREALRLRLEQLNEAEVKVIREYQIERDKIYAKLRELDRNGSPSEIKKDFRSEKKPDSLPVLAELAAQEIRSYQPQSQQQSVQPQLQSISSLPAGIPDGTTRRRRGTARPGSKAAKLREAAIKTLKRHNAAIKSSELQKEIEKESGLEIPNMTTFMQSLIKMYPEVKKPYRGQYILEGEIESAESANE
Assay: protein binding microarray;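 also: rank score from −0.5 (least bound) to 0.5 (best bound)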
Conditions: Rok is a gene silencer of Bacillus subtilis; high values mean tight binding; most listed sequences are background and not binding sites; double strand, one strand shown

Row | Sequence | binding signal [E-score]
1 | ATAGTCAC | 0.0659
2 | TCCCACAA | 0.0219
3 | CGGGACTC | -0.31
4 | AATCCCAT | 0.0228
5 | CAGTGGCG | -0.105
6 | CGGTAAGA | -0.0666
7 | CTTTGCAA | -0.176
8 | ATAACGGC | 0.098
9 | CACCGAGC | -0.126
10 | AGATAGCA | 0.201
11 | AAAGCATC | -0.159
12 | AAACGCCA | -0.072
13 | CGGCAATA | 0.00897
14 | AAATTATA | 0.413
15 | CATAAGGA | -0.0425
16 | GCGAACCC | -0.23
17 | ATGGAGGC | -0.13
18 | ATCTCGGC | -0.138
19 | TCGGGAAA | -0.159
20 | GAAGTATC | 0.326
21 | CGTGCAGC | -0.0322
22 | ACGTCATA | 0.128
23 | AGCAAGGA | -0.202
24 | GTGTAGTA | 0.379
25 | AAGGTATT | 0.14

Row | Sequence | binding signal [E-score]
26 | TATCATAA | 0.162
27 | GCGGTCAA | -0.132
28 | CACCTATG | -0.176
29 | AATTCACC | 0.115
30 | AGTAGCTG | 0.204
31 | GAATGCAC | -0.022
32 | AGAGCGAT | -0.0891
33 | GAAGCCGA | -0.0578
34 | CGGCCACA | -0.268
35 | TGCCCGAA | -0.238
36 | GTAGCCAA | -0.0619
37 | AGACGCCA | -0.226
38 | GGCGGTTA | -0.11
39 | CTTGCATA | 0.0428
40 | ATGTACCC | 0.0665
41 | AATAACCT | 0.0317
42 | TGAATTCA | 0.147
43 | CATACGGG | -0.188
44 | CAAGATTC | 0.129
45 | CATCATAA | 0.0866
46 | GAGTGAAA | -0.103
47 | ACTGTTGA | 0.0285
48 | GCCCAGAC | -0.25
49 | AAGTCATG | 0.0874
50 | CCGGCCCC | -0.392

Row | Sequence | binding signal [E-score]
51 | ACCTGGCA | -0.089
52 | AGCTCAAA | -0.222
53 | CCCTTTTC | -0.171
54 | CCGCCGCA | -0.346
55 | CTGAGGTC | -0.269
56 | TAGCGAAA | 0.144
57 | ATTACGCC | 0.0644
58 | CGATCTCA | -0.192
59 | ATGCCGCC | -0.217
60 | CTGTACAA | 0.0838
61 | GTGAACTA | 0.212
62 | GCTTAAGC | -0.201
63 | GGCGGCTA | -0.109
64 | ACTGGTAT | 0.195
65 | CCGGTTTA | 0.0148
66 | ATATGAAC | 0.126
67 | AGTGTAAC | 0.151
68 | CTGGGCCA | -0.2
69 | CCATGAGC | -0.177
70 | CACTTTTC | 0.0315
71 | GTGGGCTA | -0.119
72 | GCACCCGA | -0.295
73 | CAGAGTAG | -0.113
74 | GAACGCCC | -0.331
75 | GTTACCGA | 0.15

Row | Sequence | binding signal [E-score]
76 | AAGACATG | -0.0697
77 | AGAATGAT | 0.242
78 | CTATTGTA | 0.381
79 | ATAAGCTC | -0.154
80 | CTCATTGA | 0.00734
81 | ACACTTGC | -0.0774
82 | CTACCCGA | -0.0584
83 | AACGGACA | 0.0656
84 | CATGTCAA | 0.144
85 | AATCAAAT | -0.0384
86 | AAAATATC | 0.275
87 | GTAACGAC | 0.166
88 | GCGAGATA | 0.149
89 | TCCATGCA | -0.0824
90 | AACCCGTT | 0.000276
91 | CGGCTCCC | -0.379
92 | CATTCTAC | 0.407
93 | GACAACAC | -0.0144
94 | ATTCGGTC | 0.0426
95 | AATCACCC | -0.145
96 | CGTGACTA | 0.0779
97 | AACCGATT | -0.0941
98 | CAGGGCGA | -0.375
99 | CCGAATAC | 0.0709
100 | CGACGTGC | -0.0293

Row | Sequence | binding signal [E-score]
101 | AACATTCA | 0.0759
102 | CGACCAAA | 0.012
103 | AAGACCCC | -0.295
104 | AGCGCTCG | -0.244
105 | GCGGAACC | -0.346
106 | CGTCCTAA | -0.0629
107 | ACTACGCA | 0.027
108 | GCTCGAAC | -0.0353
109 | AACTGATG | 0.111
110 | GCTATGCC | -0.275
111 | AGCCCCTA | -0.323
112 | AACGCGTC | -0.159
113 | GGTAGCAC | 0.158
114 | CCCTGAGA | -0.153
115 | AGTACACA | 0.278
116 | ACAAGAAG | -0.052
117 | AGGAATGA | -0.0111
118 | AGGAAATA | 0.107
119 | TATGTACA | 0.378
120 | AAGACAAT | 0.0596
121 | ACTTGTTA | 0.224
122 | CCACGCTC | -0.0667
123 | AGCCCACT | -0.114
124 | GACAGTAC | 0.0207
125 | GCTCGAAA | -0.0122

Row | Sequence | binding signal [E-score]
126 | GTAGACAC | -0.0975
127 | ATCCTACC | 0.256
128 | ATTCCGGC | 0.11
129 | GCCGCAGA | -0.284
130 | ATCGACAG | 0.0183
131 | AGGGAACG | -0.149
132 | ACCGGCCG | -0.0951
133 | AGATCTGG | -0.0378
134 | AATCGAGC | 0.0782
135 | CATTGAGC | -0.241
136 | GGCGACTA | -0.254
137 | AGTTTAAG | -0.0396
138 | CGTCTGAC | -0.293
139 | CCATCGGA | -0.23
140 | AAGGGAGA | -0.313
141 | ACTGCGTG | -0.118
142 | CATTTGCA | 0.0756
143 | AATCCGGT | 0.0671
144 | AAAGAGCC | -0.175
145 | AAGAAATT | 0.132
146 | GCTCCCAC | -0.193
147 | CAAGAGCA | -0.197
148 | CGACCCGA | -0.288
149 | AGTTGCAG | -0.11
150 | ATCCCCAT | -0.218

Row | Sequence | binding signal [E-score]
151 | CCCGCAGG | -0.431
152 | CCCCCGGC | -0.361
153 | GTAAGAAC | -0.0248
154 | GTCTCCGA | -0.145
155 | ACTAGGCT | -0.0445
156 | CCCCGCAC | -0.33
157 | CTAGTGAA | 0.0833
158 | CCGCATCG | -0.243
159 | AGGTCCAT | -0.0265
160 | CGCTGATC | -0.206
161 | AGCGAGGC | -0.194
162 | AGATTTAA | 0.183
163 | CCGCATAA | -0.0394
164 | TGAGAGCA | -0.194
165 | ACTACTGG | 0.224
166 | CACTGGAA | -0.0294
167 | CCACTATA | 0.162
168 | CGGGGGTA | -0.326
169 | GCTGGCGA | -0.138
170 | ATATAGCG | 0.349
171 | ATATTATA | 0.425
172 | ACGAGACA | 0.173
